The whole screen tested about 45,000 compounds, of which about 65 (0.1%) were called active. Calls come from the whole dose curve; as a rule, active = well fitted activation curve with a large enough effect; inconclusive = small, poorly fitted or top-dose-only effect; inactive = no such curve, though single readings can be large or run the other way. The list shows a part of the results.
These compounds were tested against Galactocerebrosidase (Homo sapiens) (UniProt P54803) (assay: A Novel Cell-Based Assay to Identify Small Molecules for B -Galactocerebrosidase). Conditions: 145M-Twi-hGALC-G270D cells (Twitcher mouse brain line with human GALC G270D), HMU-beta-Gal fluorescence, 48 h; series mostly up to 57.5 µM; activation: at the top concentration.
Method in brief: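 Mutant human GALC (G270D), stably expressed in a Twitcher mouse brain cell line lacking endogenous GALC, is measured in live-treated cells via 6-hexadecanoylamino-4-methylumbelliferyl-β-galactoside hydrolysis (0.1 mM final, pH 5.2) with fluorescent detection.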
Note: 0% is about no effect; nearly all actives have a fitted effect of over 65% in size.

UniProt P54803, sequence (P54803 whole entry, looked up): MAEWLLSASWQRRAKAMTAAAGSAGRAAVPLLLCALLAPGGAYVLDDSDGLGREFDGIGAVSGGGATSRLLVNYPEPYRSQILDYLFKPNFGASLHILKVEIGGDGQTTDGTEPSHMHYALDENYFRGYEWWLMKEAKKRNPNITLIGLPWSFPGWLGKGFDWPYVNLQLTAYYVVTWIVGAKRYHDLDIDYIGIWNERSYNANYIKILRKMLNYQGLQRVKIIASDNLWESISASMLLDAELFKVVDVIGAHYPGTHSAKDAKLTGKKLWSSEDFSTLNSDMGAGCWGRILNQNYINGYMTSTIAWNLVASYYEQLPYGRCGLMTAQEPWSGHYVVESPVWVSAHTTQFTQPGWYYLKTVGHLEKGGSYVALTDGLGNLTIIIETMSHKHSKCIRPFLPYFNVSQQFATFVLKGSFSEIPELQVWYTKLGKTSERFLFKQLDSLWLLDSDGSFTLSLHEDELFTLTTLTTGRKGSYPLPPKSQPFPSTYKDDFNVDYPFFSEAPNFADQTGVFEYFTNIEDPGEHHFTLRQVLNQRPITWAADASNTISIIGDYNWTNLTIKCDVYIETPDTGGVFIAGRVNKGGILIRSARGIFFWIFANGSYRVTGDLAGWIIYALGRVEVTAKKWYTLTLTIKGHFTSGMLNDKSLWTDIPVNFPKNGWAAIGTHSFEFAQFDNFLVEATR

activation, inactive:
CCCC(=O)Nc1ccccc1C(=O)OCc1cc(=O)n2nc(C(C)C)sc2n1 -15.5%
CCOC(=O)c1cc(S(=O)(=O)NCc2ccc(OC)cc2)[nH]n1 -26.7%
COc1ccc(OCc2ccc(-c3nc(C#N)c(NCc4cccnc4)o3)o2)cc1 -10.7%
Cc1cccc2c(=O)cc(CSc3ccccc3NC(=O)C(C)(C)C)[nH]c12 -11.7%
CCC(=O)N1CCCc2cc(S(=O)(=O)N3CCC(C(=O)Nc4ccc(C#N)cc4)CC3)ccc21 -12.4%
Cc1cc(C)cc(NC(=O)N2CCN(C(=O)c3nsc4ccccc34)CC2)c1 -13.1%
COC(=O)c1ccc(-n2c(/C=C/c3cc(OC)c(OC)c(OC)c3)nc3cc(Cl)ccc3c2=O)cc1 -8.79%
CCN(C(=O)Cn1c(=O)n(Cc2ccc3c(c2)OCO3)c(=O)c2ccc(C(=O)NC3CCCCC3)cc21)c1cccc(C)c1 -21.9%
COc1ccc(OC)c(S(=O)(=O)N2CCN(Cc3nc4ccc(C)cc4o3)CC2)c1 -5.05%
Cc1ccc(Cn2cc(S(=O)(=O)c3ccc(Cl)cc3)c(=O)c3cc4c(cc32)OCO4)cc1 -10.1%
CC(=O)Nc1ccc(NC(=O)C(NS(=O)(=O)c2ccc(Br)s2)c2ccccc2)cc1 (stereo unspecified) 0.351%
Cc1ccc(CNC(=O)CCc2nc3cccnc3n2Cc2ccccc2)cc1 -27.1%
COc1cc(NC(=O)Cn2nnnc2-c2ccccc2F)cc(OC)c1OC -5.28%
CC(=O)N1CCc2cc(S(=O)(=O)NC(Cc3ccccc3)C(=O)NCc3ccccc3Cl)ccc21 (stereo unspecified) -17.3%
COCc1oc2ccc(NS(=O)(=O)c3ccc(C)cc3)cc2c1C(=O)OC -23.7%
CCCc1ccc(OC(C)c2nc(-c3ccc(-n4cccc4)cc3)no2)cc1 (stereo unspecified) -4.74%
O=C(CCNS(=O)(=O)c1ccc2c(c1)CCN2C(=O)C1CC1)N1CCN(c2cccc(C(F)(F)F)c2)CC1 -44.7%
Cc1ccc(OCCSc2nc3ccc(NC(=O)c4ccco4)cc3s2)cc1 -7.44%
O=C1CC(=O)Nc2cc(S(=O)(=O)Nc3ccc(F)cc3Cl)ccc2N1 -17.3%
CCOc1ccc2nc(N(Cc3cccnc3)C(C)=O)sc2c1 -22.3%
COc1ccc(-c2cc3ccc(O)c(CN4CCCCC4C)c3oc2=O)cc1OC (stereo unspecified) -17.3%
CCCCn1cc(S(=O)(=O)c2ccc(OCC)cc2)c(=O)c2cc(OC)c(OC)cc21 4.1%
Cc1ccc(NC(=O)CN(CCc2ccccc2)S(=O)(=O)c2ccccc2)c(C)c1 -10.9%
CCOc1ccc(CNC(=O)Cn2nc(C)n3cccc3c2=O)cc1 4.66%
CCc1ccc(-n2nc3ccc(NC(=O)c4cc(Cl)c(OC)c(Cl)c4)cc3n2)cc1 -11.3%
Cc1ccc(CNC(=O)c2cccc(N3CCCS3(=O)=O)c2)cc1 -7.92%
COC(=O)c1cccc(NC(=O)N(C)CCc2c(C)nn(C)c2C)c1 -12.9%
C[N+](C)(C)CCOC(N)=O -8.26%
CN(C(=O)CSc1nc2ccc(NC(=O)c3ccccc3F)cc2s1)c1ccccc1 2%
COCCN1Cc2cccc(C(=O)Nc3ccc(C)c(F)c3)c2C1=O 1.23%
Cc1cc(C)cc(NC(=O)C(=O)NCC(c2ccc3c(c2)OCO3)N2CCOCC2)c1 (stereo unspecified) -17.7%
Cc1ccc(CNC(=O)Cn2c(=O)n(Cc3ccccc3)c(=O)c3c2c2cc(C)ccc2n3C)cc1 -4.09%
COc1ccc(CN2CCc3nc(Nc4ccccc4)ncc3C2)c(OC)c1OC -34.6%
CCOc1ccc(N2CC(C)Cn3c2nc2c3c(=O)n(CC(=O)O)c(=O)n2C)cc1 (stereo unspecified) -4.35%
COc1cc(N2C(=O)CSC23C(=O)N(C)c2ccccc23)cc(OC)c1OC (stereo unspecified) -7.5%
CC(C)(C)NC[C@H](O)COc1cccc2c1CCCC2=O -8.93%
CC(C)c1ccc(NC(=O)c2cn(C3CCCCC3)c(=O)c3c2c2ccccc2n3C)cc1 -22.4%
Fc1ccc(-c2cc(-c3nc(-c4ccccc4)no3)[nH]n2)cc1 -12.6%
COc1ccc(Nc2nc3c(S(=O)(=O)c4ccccc4)nnn3c3ccc(Cl)cc23)c(OC)c1 -9.32%
COc1ccccc1C1=NS(=O)(=O)N(C)C(C(=O)Nc2cc(OC)c(OC)c(OC)c2)=C1 -10.4%
Cc1nc2nc(SCC(=O)Nc3cccc(Cl)c3)nn2c(C)c1Cc1ccccc1 -8.5%
CCCCn1c(=N)c(S(=O)(=O)c2ccccc2)cc2c(=O)n3cccc(C)c3nc21 21.4%
Cc1ccc2c(c1)c1c(c(=O)n(-c3cccc(Cl)c3)c(=O)n1CC(=O)c1ccc(Cl)cc1)n2C -2.23%
CC(C)Cn1cc(NC(=O)NCc2ccccc2)c2ccccc2c1=O -28%
Cc1ccccc1NC(=O)N1CCc2cc(S(=O)(=O)N3CCC(C)CC3)ccc21 -11.7%
COc1ccc(-c2nc(C)c(CCNC(=O)c3ccc(F)c(F)c3)s2)cc1 -36.5%
Cc1ccccc1CNC(=O)c1cccc(NC(=O)c2nsc3ccccc23)c1 -4.49%
COc1ccc(-c2cn3cccnc3n2)cc1NC(=O)COc1ccccc1 -9.6%
Cc1c(CC(=O)N2CCCCC2)c(=O)oc2cc3occ(C(C)(C)C)c3cc12 -17.1%
CCC1=Nc2cc(C(=O)NCc3ccccc3OC)ccc2Sc2ccc(Cl)cc21 -3.61%
O=S(=O)(NCc1ccccc1Cl)c1ccc(-c2cnc(C3CC3)o2)cc1 0.0687%
COc1ccc(N2C(=O)CSC23C(=O)N(Cc2ccccc2F)c2ccccc23)cc1Cl (stereo unspecified) -34%
Cc1ccc(OCC(=O)Nc2ccc(OCc3cc(=O)n4ccsc4n3)cc2)cc1 -3.41%
CCC(=O)N1c2ccccc2CC1C(=O)NCCc1ccccc1Cl (stereo unspecified) -2.78%
Cc1ccc(S(=O)(=O)C2(C(=O)Nc3ccc(C)c(Cl)c3)CC2)cc1 -4.59%
CN1CCN(C(c2ccc(Cl)cc2Cl)c2sc3nc(-c4ccco4)nn3c2O)CC1 (stereo unspecified) -9.47%
Cn1nc(C(=O)NCc2cccc(Cl)c2)c2c1-c1ccccc1SC2 -11.2%
COCCNc1ncnc2c1cnn2-c1cc(Cl)ccc1C -8.31%
Cc1cc(C)c2c(n1)SCC(=O)N2CC(=O)Nc1ccc(C)c(C)c1 -7.86%
O=C(NCc1ccc(Cl)cc1)c1ccc(NC(=O)N2CC3CCCN3c3ccccc32)cc1 (stereo unspecified) -9.8%
CC1=C(c2ccc(C)cc2)S(=O)(=O)NC1=NCCCN1CCN(c2cc(C)ccc2C)CC1 4.69%
COc1ccc(N2CCN(CC(O)COc3ccc(C)cc3C)CC2)cc1 (stereo unspecified) -23.2%
Cc1ccc(CNC(=O)CCS(=O)(=O)c2cc3c(cc2Cl)NC(=O)CO3)cc1 -2.26%
CC(C)(C)C(=O)NC1(C(F)(F)F)NC(=O)N(c2ccc(F)cc2)C1=O (stereo unspecified) -6.74%
COc1ccc(N2CCN(c3ncnc4c3cnn4-c3ccc(C)c(Cl)c3)CC2)cc1 -18%
Cc1ccc(Cl)cc1N1CCN(C(=O)CN2C(=O)COc3ccc(S(=O)(=O)N4CCC(C)CC4)cc32)CC1 4.55%
CCOc1ccccc1CNS(=O)(=O)c1ccc2c(c1)C(C)(C)C(=O)N2C 7.97%
O=C(NCc1ccc(F)cc1)c1cc(Sc2ccc(F)cc2F)nc2ccccc12 -15.9%
Cc1c(C(=O)NCc2ccccc2Cl)sc2nc(-c3ccc(F)cc3)cn12 1.67%
CCC(=O)N1CCc2cc(S(=O)(=O)NC(C(=O)NCc3ccccc3Cl)C(C)C)ccc21 (stereo unspecified) -15.2%
COc1ccc(CNC(=O)c2ccc(-c3nc(CSc4ccc(C)cc4)c(C)o3)cc2)cc1OC -15.2%
Cc1nn(C(=O)c2ccccc2)c(C)c1S(=O)(=O)N1CCOCC1 7.21%
CCOC(=O)C1CCN(C(=O)Cn2c(-c3cccs3)cc3cc(Cl)ccc32)CC1 -8.24%
CCOC(=O)CN(Cc1ccccc1)C(C(=O)NC1CCCCC1)c1ccc(C)cc1 (stereo unspecified) -23.6%
COc1ccc(NC(=O)Cn2nc(SC)c(S(=O)(=O)c3ccc(C)cc3)c2N)cc1OC -1.01%
CCN(CC)CCCNC(=O)CSc1nc2nc(C)c(Cc3ccccc3C)c(C)n2n1 0.283%
COCCN(Cc1ccco1)C(=O)c1cc2c(Cl)nc3ccc(C)cc3c2s1 -3.99%
Fc1ccccc1N1CCN(c2ncnc3c2nc2n3CCCCC2)CC1 -10.6%
COc1ccc(CNc2nc3c(-c4ccc(C)cc4)nnn3c3ccccc23)cc1 -3.68%
CCC(=O)N1CCc2cc(Br)cc(S(=O)(=O)CCC(=O)N(C)c3cccc(C)c3)c21 -13.8%
CCOc1ccc(NC(=O)CC2C(=O)N(c3ccc(F)cc3)C(=O)N2CCc2sccc2C)cc1 (stereo unspecified) -15.4%
O=C(O)c1ccc2oc(=O)n(Cc3ccccc3)c2c1 -18%
O=C(Nc1c(Cl)cccc1Cl)c1cccc2c1C(=O)N(C1CCCCC1)C2 -18.8%
COc1ccc(-n2nc(C(=O)NCCCOC(C)C)c3c4ccccc4n(C)c3c2=O)cc1 -12%
CCOC(=O)c1cc2c(=O)n3ccccc3nc2n(CCCOC)c1=NC(=O)c1c(-c2ccccc2Cl)noc1C -8.05%
CCCS(=O)(=O)NCCc1csc2nc(-c3ccc(C)cc3)nn12 -4.39%
CN(C(=O)Cn1c(=O)n(CCC(=O)NCc2ccc3c(c2)OCO3)c(=O)c2sccc21)c1ccccc1 -6.98%
Cc1ccc(-n2ncc(C(=O)N3CCN(C4CCCCC4)CC3)c2C2CCN(C(=O)OC(C)(C)C)CC2)cc1C -6.72%
Cc1ccc(NC(=O)c2sc3nc4n(c(=O)c3c2C)CCCCC4)c(Br)c1 -6.16%
CCOc1ccc(NC(=O)C2CCCN(c3nn4cc(-c5ccc(OC)cc5)nc4s3)C2)cc1 (stereo unspecified) -13.4%
O=C(Cn1cnc(S(=O)(=O)N2CCCC2)c1)Nc1cccc(F)c1 -3.65%
Cc1ccccc1OCCCn1c(CCNC(=O)C2CCCCC2)nc2ccccc21 -21.4%
Cc1nc2nc(C)c(NS(=O)(=O)c3ccc(F)cc3)c(=O)n2[nH]1 -9.33%
Oc1c(C(c2ccccc2F)N2CCC3(CC2)OCCO3)sc2nc(-c3ccco3)nn12 (stereo unspecified) -13.5%
CC(=O)c1cccc(NC(=O)C2=CC(c3ccc(F)cc3)=NS(=O)(=O)N2C)c1 -7.6%
CCCCN(C(=O)Nc1ccc(Cl)cc1)C1CCN(C(C)=O)CC1 -8.3%
